Reference: the supplement of paper PMC12217912
The other results are listed elsewhere or left out. Sequences were assembled here from the parent chain. Values near 0.05 are background.

B1: TEV protease; numbered along this chain (parent)
chain: MGESLFKGPRDYNPISSSICHLTNESDGHTTSLYGIGFGPFIITNKHLFRRNNGTLVVQSLHGVFKVKDTTTLQQHLVDGRDMIIIRMPKDFPPFPQKLKFREPQREERICLVTTNFQTKSMSSMVSDTSCTFPSGDGIFWKHWIQTKDGQCGSPLVSTRDGFIVGIHSASNFTNTNNYFTSVPKNFMELLTNQEAQQWVSGWRLNADSVLWGGHKVFMVKPEEPFQPVKEATQL

Variants of: B1
Test: raw area under fraction-flipped curve 0-4 h after induction (AUC4h, not background-subtracted), DNA-recorder readout of cleavage of the substrate (dimensionless); higher = more cleavage of the substrate by the protease variant
Conditions: temperature: 34 °C; time window: 0-4 h after rhamnose induction
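Note: Bxb1 expression induced with 0.2% (w/v) L-rhamnose at OD600 near 0.5, cultures sampled hourly, flipped fraction per protease–substrate barcode pair counted by paired-end Illumina sequencing.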

Variant	area with substrate ENCYFQS	area with substrate ENDYFQS	area with substrate ENEYFQS	area with substrate ENFYFQS	area with substrate ENHYFQS	area with substrate ENIYFQS	area with substrate ENNYFQS	area with substrate ENPYFQS	area with substrate ENQYFQS	area with substrate ENRYFQS	area with substrate ENSYFQS	area with substrate ENTYFQS	area with substrate ENWYFQS	area with substrate ENGYFQS	area with substrate ENKYFQS	area with substrate ENMYFQS	area with substrate ENVYFQS	area with substrate ENYYFQS
D161S	0.0646	0.0596	0.0419	0.0547	0.0505	0.0775	0.0679	0.0587	0.0587	0.0631	0.0629	0.059	0.059					
L190R		0.0672	0.0641	0.0709	0.0582		0.0607		0.0626		0.0626	0.0611		0.0924	0.0539	0.0596	0.105	0.0561
R160S		0.0378						0.0558	0.0686					0.0748		0.089		
S60R	0.0581	0.0566	0.0713	0.0547			0.0635		0.0689	0.056	0.0597	0.0626	0.0208	0.0582	0.0547		0.0537	0.0644
N175R	0.0731	0.0833		0.0549			0.0622		0.0648									0.0654
F133C		0.04				0.11	0.0552		0.0565	0.053	0.0497	0.098	0.0048				0.0246	
F133V	0.083	0.0599		0.0481	0.0745	0.111		0.0768	0.0701	0.0646	0.0556	0.0611	0.0669	0.0646		0.101	0.0724	0.0498
I164N		0.0553	0.0532			0.0553	0.0524	0.0561	0.0582	0.0573	0.0608	0.0603			0.0546		0.0523	0.0601
L77G	0.0446	0.0547	0.0647	0.0661	0.0763	0.0757	0.0479	0.0408	0.059	0.0544	0.0607			0.0758	0.0577	0.0729	0.0601	
S135P		0.0816	0.0564		0.0734		0.0672		0.0516		0.0525	0.157		0.062			0.0562	0.0592
V210L	0.0616	0.0588	0.0661	0.0503	0.0635	0.08			0.0684	0.055	0.0547	0.071		0.0584	0.0677	0.0799	0.0646	
V210S	0.0607	0.0661	0.0522	0.0759	0.0596	0.0669	0.0581	0.0424	0.0676		0.0645	0.052			0.0536	0.0484	0.0538	0.0859
F92E		0.0659		0.0578						0.0577	0.0534	0.0491	0.0526	0.0605	0.0354		0.0607	0.0577
G28K	0.0601	0.0453	0.0565	0.0627		0.0855	0.0624		0.0541	0.0536	0.0627	0.0528			0.0599		0.0622	0.0735
G138N	0.0674				0.045	0.0862	0.0648		0.0681		0.115		0.0559				0.0741	
Q194L	0.0626		0.0593	0.0611		0.0908			0.0509	0.0501				0.0476			0.0811	0.066
S171V	0.0682	0.0619	0.0744		0.036	0.0505	0.0584		0.0539		0.0464			0.0507		0.0662	0.0585	0.0835
P225L	0.0612	0.0632	0.0765	0.0577	0.0509	0.0911	0.0708		0.0619	0.047		0.062	0.0732	0.0592	0.0631		0.0686	0.0653
F101K	0.0251			0.05	0.0382		0.0371		0.0461		0.0437							
T70H	0.0576	0.0573	0.0635		0.062	0.0631			0.0538		0.0615	0.0415		0.0577		0.0549		0.066
H62S		0.0705	0.0453				0.0549		0.12	0.061	0.0547	0.0551		0.0636	0.0546	0.0888	0.0818	
T55F		0.0653	0.094	0.0623	0.0608		0.0577	0.0663	0.0585		0.0597			0.0669	0.0543	0.0495	0.0648	0.06
M125S	0.0709	0.074	0.0649				0.056		0.0709						0.054			
T147G	0.0705	0.0514	0.0588						0.0487	0.0639		0.0644		0.0568			0.062	
T147P		0.0662	0.0589	0.0597	0.0764	0.0724	0.0618	0.0738	0.0506	0.0651	0.0597	0.0707		0.0654	0.0626	0.0588	0.058	
M122A		0.0812	0.0604	0.0696	0.0716	0.12		0.0575	0.0534		0.0634	0.0717	0.0464	0.0741				0.0762
L22N		0.0524	0.0515	0.0331	0.0546		0.048			0.0455	0.0435			0.0745	0.0251	0.0354		
G136Y	0.0588	0.0409	0.0706	0.0514	0.0619	0.12	0.0583		0.0523	0.0476	0.0606	0.0592			0.0559	0.0846	0.0698	0.0602
I86D		0.0324	0.0341			0.0227		0.0268			0.0225			0.0348	0.0326		0.0401	
L156G	0.0363	0.0502	0.057	0.0412			0.0426	0.0616		0.0421	0.0685	0.0513	0	0.0493		0.0466	0.0673	
